Reference: the supplement of paper PMC12217912
The list shows a part of the results. The full chains were built here from the parent and the listed change. Values near 0.05 are background.

B1: TEV protease; numbered along this chain (parent)
chain: MGESLFKGPRDYNPISSSICHLTNESDGHTTSLYGIGFGPFIITNKHLFRRNNGTLVVQSLHGVFKVKDTTTLQQHLVDGRDMIIIRMPKDFPPFPQKLKFREPQREERICLVTTNFQTKSMSSMVSDTSCTFPSGDGIFWKHWIQTKDGQCGSPLVSTRDGFIVGIHSASNFTNTNNYFTSVPKNFMELLTNQEAQQWVSGWRLNADSVLWGGHKVFMVKPEEPFQPVKEATQL

Variants of: B1
Test: raw area under fraction-flipped curve 0-4 h after induction (AUC4h, not background-subtracted), DNA-recorder readout of cleavage of the substrate (dimensionless); higher = more cleavage of the substrate by the protease variant
Settings: temperature: 34 °C; time window: 0-4 h after rhamnose induction
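Further: Bxb1 expression induced with 0.2% (w/v) L-rhamnose at OD600 near 0.5, cultures sampled hourly, flipped fraction per protease–substrate barcode pair counted by paired-end Illumina sequencing.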

Variant	area with substrate ENLYFES	area with substrate ENLYFHS	area with substrate ENLYFIS	area with substrate ENLYFKS	area with substrate ENLYFMS	area with substrate ENLYFPS	area with substrate ENLYFSS	area with substrate ENLYFWS	area with substrate ENLYFYS	area with substrate ENLYFFS	area with substrate ENLYFGS	area with substrate ENLYFNS	area with substrate ENLYFRS	area with substrate ENLYFTS	area with substrate ENLYFDS	area with substrate ENLYFLS	area with substrate ENLYFVS
Y179K	0.0522	0.0416	0.0829	0.0618	0.0487	0.0519	0.0517	0.0635	0.0604	–	–	–	–	–	–	–	–
T71P	0.0478	–	0.0659	0.0644	–	–	–	0.0757	–	0.0648	0.0597	0.0499	0.0458	0.0686	–	–	–
M83C	0.0752	–	0.0536	–	0.0572	0.0595	0.0676	0.0445	–	–	–	0.0795	0.053	0.0597	0.0567	0.0554	0.0145
G8Q	–	–	–	0.0633	0.105	–	–	0.0362	–	0.0459	–	–	0.0549	0.0671	–	0.0719	0.0698
S182N	0.0529	0.0569	0.0453	0.0331	0.0654	0.0553	–	0.0707	–	0.0731	–	0.0568	0.0457	0.0509	0.0294	–	0.0447
P225V	–	0.0633	0.0504	–	0.0778	–	0.0559	–	0.0537	0.0654	–	0.0671	0.0636	–	–	–	–
M219Y	0.0777	–	0.0626	0.0567	–	0.0618	–	–	–	–	–	0.0467	–	–	–	–	–
N193T	0.0385	0.0606	0.0476	–	0.0879	–	0.0627	0.0402	0.0514	0.0447	–	–	0.0641	–	0.0571	0.0595	–
N193G	–	–	0.039	–	–	–	0.0662	–	0.0588	0.0947	0.0709	0.0681	–	–	–	0.0487	–
S158I	0.0491	–	0.0507	0.0427	–	0.0391	–	0.051	0.0512	–	–	0.0619	–	–	–	–	0.0441
S158A	0.0471	0.0537	0.0351	0.0664	0.0607	–	–	0.0419	0.0529	0.0568	0.0592	–	–	0.0736	–	–	–
N172E	–	–	0.0477	0.0754	0.0524	0.057	–	0.0599	0.0617	0.0719	–	–	0.0715	0.0658	–	–	–
H62W	0.0788	–	0.0522	0.0576	0.0711	0.0616	0.045	0.0708	–	0.0713	0.0651	0.0603	0.0722	0.0653	–	0.0458	–
D149V	0.079	0.0699	–	–	0.0643	0.0577	0.0728	–	–	0.0689	–	–	0.0349	–	–	–	–
E107H	0.0702	–	0.0688	0.0701	0.0721	0.0681	–	0.0714	–	0.0563	0.0365	–	0.0432	–	–	–	0.0677
S4T	0.0798	–	–	0.0658	0.0766	0.0437	–	–	0.0562	0.0458	–	0.0644	0.0504	0.0684	–	–	–
I139W	0.0653	0.0699	0.0536	0.0693	0.0627	0.0526	–	0.0655	–	0.0673	0.0734	–	0.0635	0.0579	0.0607	–	0.0389
G138N	0.0669	0.0366	0.0624	–	–	0.0656	–	–	–	0.0505	0.0704	–	0.0756	–	–	–	–
G138V	–	0.0644	0.0521	–	–	–	–	0.0573	–	–	–	0.0794	0.101	0.0765	0.0771	–	0.0484
I43F	0.0533	0.0543	0.0584	–	0.053	0.0507	–	–	0.057	–	–	0.0409	–	0.0499	–	0.0662	0.0467
I43G	–	–	0.0379	0.0417	0.0457	0.0561	–	0.0519	–	0.0507	–	–	–	–	0.0464	0.0532	0.0314
F180E	–	0.0468	0.0476	–	0.0434	–	–	0.0518	0.0532	0.0585	–	0.0376	0.05	0.034	–	0.0548	–
S154F	–	–	0.0541	–	0.056	–	–	0.0562	–	0.0731	–	0.0444	0.07	–	0.0649	0.0513	–
L211H	0.0706	–	0.0641	0.0625	0.0658	0.0554	–	–	–	–	–	0.061	0.0533	–	–	0.0967	–
L77W	–	–	0.0597	–	0.0567	0.0553	0.0522	0.052	0.0585	0.081	0.0634	–	–	0.0505	0.0708	0.063	0.0658
